According to paper PMC545490, “Mapping and mutation of the conserved DNA polymerase interaction motif (DPIM) located in the C-terminal domain of fission yeast DNA polymerase δ subunit Cdc27” (BMC Molecular Biology, 2004):
Results are given in words; binding and its absence hold for the method and conditions named. In cells and extracts the contact can be indirect. Some binding calls cover weakened binding; strength is not graded here. Tags and fused reporters may be left off the sequences shown.

Key:
Experiment in all cases: pull-down; biotin-SGSG peptides on Streptavidin-agarose beads; 100 μg fission yeast protein extract, 4°C, 1 hr; washes with NP40 buffer; Pol1-13Myc detected with anti-Myc mAb 9E10; only the target purified
[1] = molecular target: T1, peptide HsB (human)
T1 sequence (peptide, biotin on the N-terminus (biotin-SGSG)): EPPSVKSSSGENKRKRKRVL

[2] = molecular target: T2, peptide HsD (human)
T2 sequence (peptide, biotin on the N-terminus (biotin-SGSG)): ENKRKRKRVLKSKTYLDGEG

[3] = molecular target: T3, peptide HsE (human)
T3 sequence (peptide, biotin on the N-terminus (biotin-SGSG)): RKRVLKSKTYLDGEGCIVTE

[4] = molecular target: T4, peptide SpA (S. pombe)
T4 sequence (peptide, biotin on the N-terminus (biotin-SGSG)): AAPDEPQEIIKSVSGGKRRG

[5] = molecular target: T5, peptide SpC (S. pombe)
T5 sequence (peptide, biotin on the N-terminus (biotin-SGSG)): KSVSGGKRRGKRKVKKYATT

[6] = molecular target: T6, peptide SpD (S. pombe)
T6 sequence (peptide, biotin on the N-terminus (biotin-SGSG)): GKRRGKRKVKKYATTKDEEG

[7] = molecular target: T7, peptide SpE (S. pombe)
T7 sequence (peptide, biotin on the N-terminus (biotin-SGSG)): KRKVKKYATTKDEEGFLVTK

[8] = molecular target: T8, peptide HsA (human)
T8 sequence (peptide, biotin on the N-terminus (biotin-SGSG)): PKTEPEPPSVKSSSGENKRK

[9] = molecular target: T9, peptide HsC (human)
T9 sequence (peptide, biotin on the N-terminus (biotin-SGSG)): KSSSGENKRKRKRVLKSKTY

[10] = molecular target: T10, peptide SpB (S. pombe)
T10 sequence (peptide, biotin on the N-terminus (biotin-SGSG)): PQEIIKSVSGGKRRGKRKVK

binding [1]: binds
binding [2]: binds
binding [3]: no binding
binding [4]: no binding
binding [5]: binds
binding [6]: binds
binding [7]: no binding
binding [8]: no binding
binding [9]: binds
binding [10]: binds
B1: Pol1-13Myc (protein, UniProt P28040 1-1405)
chain: MRKRNAGIKPSQRFAELRALRQAGKTRASTYESKENEELYDNVSEEEYRKIVRQRLDEDDFVVDDNGAGYVDNGYDEWDQSHYSDEDDENEKGSSGRKRKKSKNVLAEPNQQIGAFFKANAIQPASRIANRKNNEKEDEFMAEILGSIDQDIPERLSTKKGNRSHTTSNAKRRSQKAASSISTTNVVSSDPKKYIPETVPSTPQPASSLPIPSSPPAALETEENVDSQPMELDEPELPVGSDAPIIDVEESIAMKPLMSHDQVDDTASLSKATISQQPLSPMTPLSSELDVSAFSEINSKIKNVDVPASSYSSPISKVSPSDVTEEDGSLFFFWMDYTEMYGSLCLFGKVYDKATKQYVSCFLKVDGIMRSLYFLPRPSSSSVSEDSIAAQTKDVYDEVANLLSKRGVKEWKSRVSKYKYAFELEDVPRTADYLEVIYSYSYPALPTDLTGSSFSHVFGTNTALFEQFVLSRRVMGPCWLKIQQPNFDAVKNASWCRVEIGCSSPQNISVSFEKNEITSKTPPMTVMSLAFRTLINKEQNKQEVVMISARIFENVDIEKGLPANDMPSYSFSLIRPLKQIFPNGFEKLARQHKSSIFCERSEVSLLNNFLNKVRTYDPDVYFGHDFEMCYSVLLSRLKERKIHNWSSIGRLRRSEWPRSFNRSSQQFVEKQIIAGRLMCDLSNDFGRSMIKAQSWSLSEIVLKELDIKRQDINQEKALQSWTDTAHGLLDYLVHCEIDTFFIAAVAFKIQMLQLSKNLTNIAGNSWARTLTGTRAERNEYILLHEFKKNGYIVPDKQQSIRRHAEAFGAEDGLQEESLGKKKDKYKGGLVFEPQKGLYETCILVMDFNSLYPSIIQEYNICFTTVDRSPSNSDSDDQIPDTPSASANQGIFPRLIANLVERRRQIKGLLKDNSATPTQRLQWDIQQQALKLTANSMYGCLGYTKSRFYARPLAVLITYKGREALMNTKELADQMGLQVIYGDTDSVMLNTNVTDKNHALRIGNEFKEKVNERYSKLEIDIDNVYQRMLLHAKKKYAALQLDSQGKPNLDVKGLDMKRREFCTLAKEASKFCLDQILSGELTETVIENIHSYLMDFSEKMRNGKFPANKFIIFNRLGKNPEDYPNGKTMPFVQVALKKKARGENVRVGDVIPFIIAGSDADGHPADRAYSPQEIMNTNSTLVIDYNYYLSHQILPPIERVIAPIEGTNRARLAECLGLDARKYYSHETSESSAFQRYESTLTDDQCFINVSPLLLKCPSCNATSFSLRSVKSLKETLYANTVECDCGYEYSDFTIILQFSSQLRDFINLYYEGILVCDDSSCGNRTRQMSVYGKRCCNKSCRGSVHFEYNDEQLYNQIKFLLKAVQTTTGATRNGIIRCNAINKNISRIMNKNAREFVDMGLIFSS
